# Experimental data: PubChem BioAssay AID504832 (National Center for Advancing Translational Sciences (NCATS), 2011)
# Out of some 310,000 compounds screened, about 18,000 (5.8%) were called active. The inconclusive results got no clear call from the source; some entries with a clear call stand among them for comparison. Calls follow the shape of the dose curve; as a rule, active = well fitted inhibition curve with a large enough effect; inconclusive = small, poorly fitted or top-dose-only effect, or another doubt; inactive = no such curve, though single readings can be large or run the other way. Potencies of inconclusive entries are left out as doubtful fits.
# Experiment: Primary qHTS for delayed death inhibitors of the malarial parasite plastid, 48 hour incubation
# Conditions: P. falciparum luciferase growth in erythrocytes; series mostly up to 28.7 µM; activity change, negative = inhibition: at the top concentration
# Method in brief: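 A one-generation exposure of luciferase-tagged malaria parasites in RPMI 1640/Albumax erythrocyte culture, 37 C and 5% CO2. Inhibition is inferred from decreased luminescence after adding detection reagent.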
# % is scaled to controls: 0 for no effect and ±100 for the full control effect; potency is read from the fitted curve at half-maximal effect; tags tell the direction and shape of the fitted curve.
Structure (SMILES),Potency,"activity change, negative = inhibition"
O=C(c1cnn2c(C(F)(F)F)cc(-c3cccs3)nc12)N1CCN(Cc2ccccc2)CC1,active: 2.33 µM,–
COCC(=O)N(Cc1cc2ccc(C)cc2[nH]c1=O)c1cccc(C)c1,"inconclusive [inhibitor, single point]",–
OC1(c2ccccc2Cl)NN=C2CCCCCN21 (centres undefined),–,inactive: -9.66%
Cc1ccc(-c2nn(-c3ccc(F)cc3)cc2C(=O)N(C)CC(=O)Nc2ccc(N3CCOCC3)cc2)cc1,–,inactive: -19.4%
Cn1c(CC(=O)c2ccc(Br)cc2)[n+](C)c2ccccc21,active: 13.1 µM,–
S=C(NCc1cccnc1)Nc1ccc(Oc2ccccc2)cc1,"inconclusive [inhibitor, partial curve, poor fit]",–
O=C1[C@H]2[C@@H](c3ccc(F)cc3)N3C(=O)N(c4ccccc4)C(=O)[C@@]3(Cc3ccccc3)[C@H]2C(=O)N1C1CCCCC1,"inconclusive [inhibitor, single point]",–
COC(=O)c1c(NC(=O)CSc2nccn2C)sc(C)c1C,"inconclusive [inhibitor, single point]",–
CC(=NCc1ccco1)c1c(O)n(C2CCCCC2)c(=O)[nH]c1=O,"inconclusive [inhibitor, single point]",–
CC(C)c1ccc(C(=O)NCCCNC(=O)c2cnccn2)cc1,–,inactive: 20.3%
CC(C1CC2CCC1C2)n1c(-c2cccs2)n[nH]c1=S (centres undefined),"inconclusive [inhibitor, single point]",–
O=C1C2C3CCCC3=C3CCCC3C2C(=O)N1c1ccc(F)cc1 (centres undefined),"inconclusive [inhibitor, partial curve, poor fit]",–
Cc1cc(N2CCOCC2)nc2ccc(NC(=O)CCC(=O)N3CCN(c4cccc(C(F)(F)F)c4)CC3)cc12,active: 4.65 µM,–
CC1(C)CC(=O)C=C(/C=C/c2ccccc2)C1,"inconclusive [inhibitor, single point]",–
CCNc1nc(NCC)n2c(SC(C(=O)Nc3cc(C)ccc3OC)c3ccccc3)nnc2n1 (centres undefined),"inconclusive [inhibitor, partial curve, poor fit]",–
CCn1c2ccccc2c2cnc(N=CN(C)C)c(C#N)c21,"inconclusive [inhibitor, partial curve, poor fit]",–
O=C(CN1CCN(c2ccc(F)cc2)CC1)NC(=O)NCc1ccco1,"inconclusive [inhibitor, partial curve, poor fit]",–
COc1cc2c3nnc(-c4ccc(F)cc4)c-3cn(Cc3cccc(C)c3)c2cc1OC,active: 0.586 µM,–
Cn1cc(Br)c(C(=O)Nc2c(F)c(F)c(F)c(F)c2F)n1,–,inactive: -3.41%
O=C1OC(c2ccccc2)Cc2cc(C(=O)N3CCN(c4ccc(F)cc4)CC3)ccc21 (centres undefined),"inconclusive [inhibitor, single point]",–
COc1cccc(-c2cc(C(F)(F)F)n3ncc(C(=O)NCC4CCCO4)c3n2)c1 (centres undefined),"inconclusive [inhibitor, full curve, poor fit]",–
CCC(C)NC(=O)CN(c1cc(C)cc(C)c1)S(=O)(=O)c1c(C)[nH]c(=O)[nH]c1=O (centres undefined),"inconclusive [inhibitor, full curve, poor fit]",–

Structure (SMILES),Potency,"activity change, negative = inhibition"
O=C1c2cccc3c(Nc4ccccc4Cl)c([N+](=O)[O-])cc(c23)C(=O)N1CCO,"inconclusive [inhibitor, single point]",–
CCc1ccc(S(=O)(=O)Nc2ccccn2)cc1,–,inactive: 10.4%
O=[N+]([O-])c1cccc(/C=N/n2cnnc2)c1,–,inactive: 45.3%
CC(C)c1onc(C(=O)N2CCCCCC2)c1[N+](=O)[O-],"inconclusive [inhibitor, single point]",–
O=C(COc1ccccc1)Nc1cc(S(=O)(=O)N2CCOCC2)ccc1N1CCCC1,"inconclusive [inhibitor, single point]",–
COc1cc(C(=O)NCCNc2nc3ccc(C)cc3cc2C#N)cc(OC)c1OC,–,inactive: -4.7%
CCCCCCCn1c(NC(=O)CC)nc2ccccc21,active: 1.85 µM,–
COc1ccc2oc(-c3ccc(C)c(NC(=O)CSc4ccc(Cl)cc4)c3)nc2c1,–,inactive: 40.2%
CCCn1c(NC(=O)CCNC(=O)c2ccccc2Cl)nc2ccccc21,"inconclusive [inhibitor, single point]",–
COc1ccccc1N1CC(C(=O)Nc2nnc(SCC(=O)NCC3CCCO3)s2)CC1=O (centres undefined),–,inactive: -23.4%
Nc1[nH]nc2nc(N3CCOCC3)nc(-c3ccccc3)c12,"inconclusive [inhibitor, partial curve, poor fit]",–
Cc1cc2c(NC(=O)CC(C)(C)CC(=O)O)cccc2nn1,"inconclusive [inhibitor, single point]",–
Cc1nn(-c2ccccc2)c(N)c1C(c1ccc(C(C)C)cc1)c1c(C)nn(-c2ccccc2)c1N,active: 10.4 µM,–
NC(=O)CSc1nnc2ccc(-c3ccc(F)cc3)nn12,–,inactive: 26.2%
COCC(=O)N1CCC(Oc2ccc(C(=O)N3C[C@@H]4CCC[C@H]3C4)cc2)CC1,"inconclusive [inhibitor, partial curve]",–
COC(=O)c1ccccc1NC(=O)Cn1c(=O)n(CCC(=O)NC2CCN(Cc3ccccc3)CC2)c(=O)c2ccccc21,–,inactive: 92.9%
Nc1nonc1-n1nnc(C(=O)N/N=C/c2cccc(O)c2)c1CN1CCCC1,–,inactive: -1.56%
CCCCOC(=O)/C(=C\c1ccc([N+](=O)[O-])o1)NC(=O)c1ccccc1,"inconclusive [inhibitor, partial curve]",–
CNS(=O)(=O)c1ccc(C(=O)NCC(=O)NCCC(c2ccccc2)c2ccccc2)cc1,"inconclusive [inhibitor, partial curve]",–
CCCCCCc1cc2cc(C(=O)OCC)c(=O)oc2cc1O,active: 1.65 µM,–
Cc1c(C(=O)NCCSc2ccc(Cl)cc2)cccc1[N+](=O)[O-],–,inactive: 7.86%
COc1ccc2c(c1)c(C(=O)CN1CCN(C)CC1)c(C)n2Cc1ccccc1,"inconclusive [inhibitor, single point]",–
